This is an account of results in PubChem BioAssay AID1362 (SRMLSC, 2008).

This is one part of the list. Further columns of the screen follow, without active or inactive calls. Compounds called inactive in the main read-out are mostly missing here.

A short description of the assay: growth inhibition of WT strain, primary screen, mitochondrial fusion inhibitor project, WT and mutant strains, chemical genetic (AID 1362). Also: tested in S. cerevisiae. The settings on record: mitochondrial fusion phenotypic screen, at 10 µM.
Regarding `CC(C)N1C(=O)/C(=C\c2nc3ccccc3c(=O)n2-c2ccccc2)c2ccccc21`, the inhibition stood at 33.6%. `O=c1cc2c(nn1Cc1ccc(Cl)cc1)-c1ccccc1CC2`: the inhibition turned out to be 43.2%. With `Cc1[nH]c2ccccc2c1C(=O)COC(=O)c1c(-c2c(F)cccc2Cl)noc1C` the figure was 72.1%; with `CCCCCCCCCCCC(=O)c1c(O)cccc1O`, 81.2%; with `Cc1ccc(S(=O)(=O)c2nc(Nc3ccccc3)sc2Cl)cc1`, 19.1%. `COC(=O)COc1ccc(C)cc1-n1nc2ccccc2n1`: the inhibition was found to be 67%. The result for `Cc1cc2cc(CCNC(=O)c3ccc(Br)o3)c(=O)[nH]c2cc1C` reads 67%; that for `CCN1/C(=C\C(=S)Nc2ccccc2)Sc2ccccc21`, 57%.

As to `Cc1cccc(N2CCN(C(=O)C34CC5CC(CC(C5)C3)C4)CC2)c1C`, the inhibition is 56.1%. The result for `O=C(CCc1ccccc1)Nc1ncc2c(n1)CCCC2=O` reads -6.74%; that for `COc1ccc(-c2cn[nH]c2-c2ccc(OCc3ccc([N+](=O)[O-])cc3)cc2O)cc1`, 11.1%; that for `COc1ccc(OC)c(NC(=O)C(=S)NC2CCCCC2)c1`, 28.7%. On to `Fc1ccc(Nc2nc(N/N=C/c3ccco3)nc(N3CCCCC3)n2)cc1`, for which the inhibition amounted to 13.9%. The result for `COc1ccc(NS(=O)(=O)c2ccc3c(c2)Cc2ccccc2-3)cn1` reads 32.6%; that for `COc1ccc(Cn2c(-c3ccc(Br)cc3)c[n+]3ccccc23)cc1`, 41.3%; that for `CC(C)(C)n1nnnc1C(c1cccs1)N1CCCC2(CCCCC2)C1` (centres undefined), 10.4%. The result for `CC(C)c1ccc(NC(=S)N(C)CCc2ccccn2)cc1` reads 63.1%; that for `CCOc1cc(CNc2ccc(N3CCCCC3)cc2)cc(Br)c1OCC(=O)NC(C)(C)C`, 31.6%; that for `S=C(Nc1cccc(Cl)c1)Nc1cccc2cnccc12`, 46.8%. With `Cc1ccc(NS(=O)(=O)c2cc(C(=O)Nc3cccc([N+](=O)[O-])c3)ccc2C)cc1` the figure was 20.9%. Turning to `O=C(Nc1ccc(Cl)c(C(F)(F)F)c1)c1ccco1`, the inhibition was 60.7%.

On to `O=C(Nc1ncc(Cc2cccc(Cl)c2)s1)c1cccs1`, for which the inhibition came to 69.4%. With `CC1CCN(c2nc(-c3cccnc3)nc3scc(-c4ccccc4)c23)CC1` the figure was 0.83%. With `Fc1cccc(-c2cc3nc4c(c(N5CCC6(CC5)OCCO6)n3n2)CCCC4)c1` the figure was 29.3%. With `CCC(=O)C1=C(O)C(c2cccc(Oc3ccccc3)c2)CCC1=O` (centres undefined) the figure was 58.7%; with `CCN(CC)CCNC(=O)Cn1nc(Cc2ccccc2)c2ccccc2c1=O`, -11.9%; with `CCOc1ccc(NS(=O)(=O)c2ccc(NC(=S)NC(=O)CC(C)C)cc2)cc1`, 14.6%. With `C/C(CC1CC2=C(CC1(C)C)C(C)(C)CCC2)=N\NC(N)=S` (centres undefined), the inhibition was determined as 40.6%.

For the compound `Cc1cccc2sc(NNC(=O)c3cc(-c4cccs4)nc4ccccc34)nc12`, the inhibition was 14.7%. Turning to `O=S(=O)(c1ccc(F)cc1)N1CN(Cc2ccco2)c2nc3ccccc3nc21`, the inhibition amounted to 51.9%. For the compound `CC1C(c2ccccc2)N(C)C(c2ccccc2)C(C)C1(O)C#Cc1ccccc1` (centres undefined), the inhibition is 15.3%. The result for `Cc1cccc(COCC(CC(C)C)N2CCN(C(=O)c3ccc(C(C)(C)C)cc3)CCC2=O)c1` (centres undefined) reads -9.54%. For `CCCCOP(=O)(OCCCC)C(Nc1ccccc1)c1ccc2c(c1)OCO2` (centres undefined), the inhibition turned out to be 13%. With `COc1ccccc1OCC(=O)N(Cc1nc(-c2ccccc2)no1)C1CCCCC1` the figure was 18.5%. With `Cc1ccc(OCCCCn2cnc3ccccc32)cc1` the figure was 54.6%; with `c1ccc(-c2nc3ccccn3c2NC2CCCC2)nc1`, 51%.

`Cc1nc2ccccc2c(=O)n1NC(=O)c1ccccc1Cl`: the inhibition amounted to 35%.

`NNC(=O)c1cccc(COc2cccc(Br)c2)c1`: the inhibition is 64.6%. With `CCCn1c(CN(Cc2ccccc2)Cc2ccccc2)nc2c1c(=O)n(C)c(=O)n2C` the figure was 20.7%; with `O=C(Nc1nc(-c2cccs2)cs1)c1ccc(Cl)s1`, 76%. For the compound `CN(C)c1ncc(S(=O)(=O)c2ccc(Cl)cc2)c(-c2ccc(Cl)cc2Cl)n1`, the inhibition is 3.98%. With `CCOC(=O)c1cnc2ccc(OCC)cc2c1NCc1ccccc1` the figure was 84.3%. For the compound `Cc1ccc(C)c(Cn2cnc3c(cnn3C(C)(C)C)c2=O)c1`, the inhibition was 51.3%. The result for `CC(C)(C)C1CCc2[nH]c3ccccc3c(=O)c2C1` (centres undefined) reads 80.9%; that for `Cc1ccc2nc(-c3ccccn3)c(Nc3ccccc3C)n2c1`, 70.3%. The result for `CC(C)c1ccc2oc(-c3cc(N)ccc3O)nc2c1` reads 64.8%; that for `Cc1c(C(=O)c2ccc(Cl)c(Cl)c2)cnc2cc3c(cc12)OCO3`, 21.9%; that for `CN(C)/C=C(\C=N\OCc1ccc(Cl)cc1Cl)C(=O)Nc1ccc(Cl)c(Cl)c1`, 55.1%. With `CCc1ccc(N(CC)C(=O)c2ccc3c(Cl)c4c(nc3c2)CCC4)cc1` the figure was 5.37%. On to `CN1CCN(CC(O)COc2ccc(C34CC5CC(CC(C5)C3)C4)cc2)CC1` (centres undefined), for which the inhibition amounted to 92.9%.

As for `Cc1ccc2nc(N(CCCN(C)C)C(=O)COc3ccc(Cl)cc3)sc2c1`, the inhibition came to 89.1%. With `Oc1ccccc1CN(Cc1ccco1)CC(O)COCc1ccc(Cl)cc1` (centres undefined) the figure was 17.8%; with `O=C(OC(C(=O)Nc1cccc(C(F)(F)F)c1)c1ccccc1)C1CCCCC1` (centres undefined), 10.9%; with `COc1ccc(C(C)=O)cc1CSc1nc2ccccc2c(=O)n1-c1ccccc1C`, 38.9%. Regarding `CCc1ccc2c(c1)C(c1ccc(N3CCOCC3)cc1)=NNC(c1ccncc1)=N2`, the inhibition was 40.7%.

`Cc1cccn2cc(COc3ccc(-c4ccccc4)cc3)nc12`: the inhibition is 74.9%.

`O=C(c1n[nH]c2ccccc12)N1CCN(S(=O)(=O)c2ccc3ccccc3c2)CC1`: the inhibition was 29.2%.

For the compound `Cc1ccccc1N1CCN(C2=NC(=O)/C(=C\c3cccs3)S2)CC1`, the inhibition was determined as 27.3%. Take `CCCCCCCc1ccc(-c2ccc(O)cc2)nc1`: the inhibition worked out at 37.3%.

As for `CNC(=S)N1CCN(c2ccc([N+](=O)[O-])cc2)CC1`, the inhibition was -8.55%. The result for `Cc1ccc(Cl)cc1NC1=C/C(=N\S(=O)(=O)c2cccs2)c2ccccc2C1=O` reads 65.8%. With `O=C(CSc1nnc2scc(-c3ccccc3)n12)Nc1ccc2c(c1)OCCO2` the figure was 14.2%. The result for `Cc1ccc(C)c(N2CCN(C(=S)Nc3ccc4nc(N5CCN(C)CC5)cc(C)c4c3)CC2)c1` reads 41.5%. Take `O=C1c2ccccc2C(=O)N1CCN1CCCCC1`: the inhibition was -4.37%.

`CCC(C(=O)OCC(=O)Nc1ccc(SC(F)F)cc1)c1ccccc1` (centres undefined): the inhibition stood at 10.3%. With `Cc1c(C(=O)N2CCN(c3ccc(C(F)(F)F)cn3)CC2)oc2ccccc12` the figure was 47.4%; with `CC1CC(C)CN(c2ncnc3c2cnn3Cc2ccc(Cl)cc2)C1` (centres undefined), 18.6%.

On to `C=CCN(CC=C)C(=S)NC(=O)Cc1cccc2ccccc12`, for which the inhibition was 58.7%.

Take `O=c1c2c3c(sc2nc2n1CCC2)CCC3`: the inhibition is -5.45%. For the compound `CCC(/C=C1\Sc2ccc(OC)cc2N1CC)=C\c1sc2ccc(OC)cc2[n+]1CCCS(=O)(=O)[O-]`, the inhibition was determined as 53.2%. With `O=c1cc(C(F)(F)F)[nH]c2c(C(F)(F)F)cccc12` the figure was 71.2%; with `S=C(NCc1ccco1)Nc1cc(-c2ccccc2)[nH]n1`, 21.9%. The result for `CCCCCCP(=O)(O)c1ccccc1` reads 2.28%; that for `Cc1cccc(-n2c(-c3csc4ccccc34)n[nH]c2=S)c1`, 7.12%.

With `COc1cc2c(cc1NC(=S)Nc1cccc(C(F)(F)F)c1)oc1ccccc12`, the inhibition is 35.5%.

`Cc1ccc2nc(SC(C(=O)Nc3ccc(F)cc3)c3ccccc3)[nH]c2c1` (centres undefined): the inhibition turned out to be 2%. With `O=C(Nc1nnc(-c2ccc(F)cc2)o1)c1cccc([N+](=O)[O-])c1` the figure was 74.9%; with `CN1CCN(CC(O)(c2ccc(Cl)cc2)c2ccc(Cl)cc2)CC1`, 65.7%.

`CC1(C)Cc2ccccc2C(/C(=N\Nc2cccc(Cl)c2)C(N)=O)=N1`: the inhibition stood at 27.2%. The result for `Cc1ccc(C)c(N2CCN(C(=O)C(Cc3ccccc3)n3cccc3)CC2)c1` (centres undefined) reads 31.4%; that for `CC1(CC(=O)N/N=C/c2ccc(OCc3ccc(Cl)cc3Cl)cc2)OCCCO1`, 7.25%.

`CC1=NOC(=O)/C1=C\c1ccc(-c2ccc(Br)cc2)o1`: the inhibition came to 75%. With `COc1cc(/C=C2\SC(=S)N(Nc3ccccc3)C2=O)ccc1O` the figure was 73.5%. With `C/C(N)=C(/C#N)C(=O)COC(=O)c1cc(S(=O)(=O)N2CCCCC2)ccc1C` the figure was -3.69%. The result for `COc1ccc(C(C)(C)C)cc1NC(=O)Nc1ccc2c(c1)OCO2` reads 15.4%; that for `O=c1ccccn1Cc1c(Cl)cccc1Cl`, -1.19%. Turning to `COc1ccc(C2N(c3ccc(Cl)cc3)N=C(C(C)=O)N(C)N2C(C)=O)cc1` (centres undefined), the inhibition was 1.32%. With `Cc1nc2c(=O)n(C)c(=O)n(C)c2nc1Cl` the figure was 44.6%.

For the compound `CCc1oc2ccccc2c1C(=O)c1cc(Br)c(O)c(Br)c1`, the inhibition turned out to be 63.4%. With `COc1ccc(Nc2c3c(nc4c(-c5ccccc5)c(C)nn24)CCC3)cc1` the figure was 17.5%. In the case of `CSc1ccc(/C=N/NC(=O)CNc2ccc3ccccc3c2)cc1`, the inhibition amounted to 51.5%. The result for `Cc1ccc(C)c(-c2cc(C(=O)Nc3nccs3)c3ccccc3n2)c1` reads 38.3%; that for `N=c1c2c(n(Cc3ccc(Br)cc3)c3c1CCC3)CCCC2`, 30.2%.

Consider `CN(C)c1ccc(C(CNS(=O)(=O)c2ccc(F)c(F)c2)c2c[nH]c3ccccc23)cc1` (centres undefined), for which the inhibition was -0.95%. For the compound `COc1ccc(-c2cc3nc(-c4ccccc4)cc(N4CCC(O)CC4)n3n2)cc1`, the inhibition came out at 3.48%. In the case of `Cc1cc(Cl)ccc1OC(C)C(=O)Nc1ccccc1N1CCOCC1` (centres undefined), the inhibition was 9.85%. `COc1cc(CNn2cn[nH]c2=S)cc(Br)c1OCc1ccccc1F`: the inhibition was 22.7%. With `CS(=O)(=O)N(Cc1cc2ccccc2[nH]c1=O)C1CCCCC1` the figure was 6.85%; with `O=C(Nc1cccnc1)c1ccc(Cl)c(S(=O)(=O)N2CCc3ccccc32)c1`, 18.5%. With `CC1=NN(c2ccc([N+](=O)[O-])cc2)C(=O)/C1=C\N(C)C` the figure was 54.8%. With `O=c1cc(-c2ccc(C3CCCCC3)cc2)[nH][nH]1` the figure was 15%; with `CC(C)(C)c1ccccc1NC(=S)NCc1ccccc1`, 58.7%. Consider `COCC(C)n1c(SCc2ccc(OC)c(F)c2)nc2ccccc2c1=O` (centres undefined), for which the inhibition is 2.84%. The result for `CC(=O)Oc1ccc(N(C(C)=O)S(=O)(=O)c2cccs2)cc1` reads -2.75%.

With `Cc1cc(C)c(COc2ccc(/C=N/n3c(C)n[nH]c3=S)cc2)c(C)c1`, the inhibition is 63.2%. Regarding `Cc1cc(C)c(C)c(N=Nc2nc3ccccc3n2C)c1C`, the inhibition stood at 77.6%.

In the case of `Cc1ccc(O)c(C(=O)/C=C/c2ccc3c(c2)OCCCO3)c1`, the inhibition came to 4.05%.

As for `Cc1nc(=O)c(-c2ccccc2)c(C)n1CCCCCC(=O)O`, the inhibition was -1.16%. In the case of `CCc1ccc(-c2cn(C3CCCCC3)c(=S)[nH]2)cc1`, the inhibition was 58.5%.
